# Source: a collection of fitness landscapes (doi:10.1016/j.celrep.2020.107928)
# In all, about 81,000 sequences were measured (“one-hybrid fitness for binding parS DNA”: median about -0.17, highest 2% from about 0.51 on). This is one part of the list.
# B1: Caulobacter ParB omega fusion; a variant is named by its letters at X, in order, B8GW30 (parent)
# chain: MESVVVGEPGMSEGRRGLGRGLSALLGEVDAAPAQAPGEQLGGSREAPIEILQRNPDQPRRTFREEDLEDLSNSIREKGVLQPILVRPSPDTAGEYQIVAGERAWRAAQRAGLKTVPIMVRELDDLAVLEIGIIENVQRADLNVLEEALSYKVLMEKFERTQENIAQTIGKSXSHVANXMRLLXLPDEVQSYLVSGELTAXHARAIAAAADPVALAKQIIEGGLSVRETEALARKAPNLSAGKSKGGRPPRVKDTDTQALESDLSSVLGLDVSIDHRGSTGTLTITYATLEQLDDLCNRLTRGI
# Variants of: B1
# Assay: one-hybrid fitness for binding parS DNA (scaled: cognate 1, non-cognate 0); higher = stronger binding
# Conditions: with parS DNA site
# Procedure, shortened: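 Fitness is the rescaled log change in variant-to-wild-type read ratio, measured by Illumina sequencing of plasmids before and after bacterial one-hybrid selection. The scale puts cognate at 1 and non-cognate at 0. Selection of Caulobacter ParB libraries, four specificity codons randomised, took place in E. coli USO with a HIS3 reporter, site 19 bp from the promoter, over 48 hours at 37°C on M9-minus-histidine with 0.1 mM IPTG and 5 mM 3-AT.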
row,Variant,one-hybrid fitness for binding parS DNA
1,NRFR,≤ 0.2
2,TGHV,≤ 0.2
3,VEHM,≤ 0.2
4,EYWT,≤ 0.2
5,RGLI,≤ 0.2
6,YKSG,≤ 0.2
7,GSPH,≤ 0.2
8,YMYN,≤ 0.2
9,NRSA,≤ 0.2
10,QWNK,≤ 0.2
11,QSSY,≤ 0.2
12,DKLC,≤ 0.2
13,WGPS,≤ 0.2
14,CWRC,≤ 0.2
15,RMWK,≤ 0.2
16,LMWG,≤ 0.2
17,SHDR,≤ 0.2
18,NDDD,≤ 0.2
19,KPNF,0.212
20,LALT,≤ 0.2
21,FHAA,≤ 0.2
22,HKTI,≤ 0.2
23,YISG,≤ 0.2
24,GPLH,≤ 0.2

row,Variant,one-hybrid fitness for binding parS DNA
1,HAPW,≤ 0.2
2,WSLG,≤ 0.2
3,RVQY,0.466
4,QGNC,≤ 0.2
5,QSNK,≤ 0.2
6,QDVS,≤ 0.2
7,ATQA,≤ 0.2
8,ELSL,≤ 0.2
9,KAYL,≤ 0.2
10,SLMR,≤ 0.2
11,TPLH,≤ 0.2
12,QVYR,≤ 0.2
13,KKQT,≤ 0.2
14,LANL,≤ 0.2
15,QGYI,≤ 0.2
16,LLQV,≤ 0.2
17,PHHE,≤ 0.2
18,IKRF,≤ 0.2
19,DVPY,≤ 0.2
20,MPPR,≤ 0.2
21,SLHK,≤ 0.2
22,GTPK,≤ 0.2
23,PDLF,≤ 0.2
24,TGRC,≤ 0.2

row,Variant,one-hybrid fitness for binding parS DNA
1,AQVC,≤ 0.2
2,HGSK,≤ 0.2
3,MVRR,≤ 0.2
4,VLTA,≤ 0.2
5,AQLW,≤ 0.2
6,YMWY,≤ 0.2
7,LQWQ,≤ 0.2
8,EALE,≤ 0.2
9,WNKI,≤ 0.2
10,LWLW,≤ 0.2
11,VVIS,≤ 0.2
12,YSDC,≤ 0.2
13,KSNI,≤ 0.2
14,VDVS,≤ 0.2
15,PHYV,≤ 0.2
16,SGTK,≤ 0.2
17,ARDF,≤ 0.2
18,SKYI,≤ 0.2
19,QLIH,≤ 0.2
20,ALRS,≤ 0.2
21,MMWA,≤ 0.2
22,QDIG,≤ 0.2
23,MKLF,≤ 0.2
24,LAWV,≤ 0.2

row,Variant,one-hybrid fitness for binding parS DNA
1,FPAR,≤ 0.2
2,VYRC,≤ 0.2
3,MMRG,≤ 0.2
4,QQVH,≤ 0.2
5,YENC,≤ 0.2
6,TASI,≤ 0.2
7,YWAT,≤ 0.2
8,REDH,≤ 0.2
9,IVQC,≤ 0.2
10,GVVP,≤ 0.2
11,FYAW,≤ 0.2
12,QCFI,≤ 0.2
13,STYM,≤ 0.2
14,AGVG,≤ 0.2
15,CPGS,≤ 0.2
16,RWFK,≤ 0.2
17,PTEC,≤ 0.2
18,PVMR,≤ 0.2
19,NPIR,≤ 0.2
20,VWWS,≤ 0.2
21,NETC,≤ 0.2
22,VHMC,≤ 0.2
23,RNIK,≤ 0.2
24,DDQT,≤ 0.2

row,Variant,one-hybrid fitness for binding parS DNA
1,SGGA,≤ 0.2
2,PVWR,≤ 0.2
3,AKVS,≤ 0.2
4,YPHL,≤ 0.2
5,EWRS,≤ 0.2
6,CAFG,≤ 0.2
7,AGAL,≤ 0.2
8,PQKR,≤ 0.2
9,VWLS,≤ 0.2
10,VDEL,0.3
11,WLHT,≤ 0.2
12,NIMR,≤ 0.2
13,LLMC,≤ 0.2
14,HPCP,≤ 0.2
15,SMKF,≤ 0.2
16,NIRG,≤ 0.2
17,WCTG,≤ 0.2
18,SQKY,≤ 0.2
19,NMLS,≤ 0.2
20,IIDV,≤ 0.2
21,LMAG,≤ 0.2
22,DLLC,≤ 0.2
23,KYKY,≤ 0.2
24,ACCE,≤ 0.2

row,Variant,one-hybrid fitness for binding parS DNA
1,CRGS,≤ 0.2
2,HMPR,≤ 0.2
3,CDAR,≤ 0.2
4,YAQC,≤ 0.2
5,QFKG,≤ 0.2
6,KRIF,≤ 0.2
7,DPSC,≤ 0.2
8,GSTT,≤ 0.2
9,SMDY,≤ 0.2
10,KQCS,≤ 0.2
11,EGSH,≤ 0.2
12,GAYY,≤ 0.2
13,EDEL,≤ 0.2
14,FLQT,≤ 0.2
15,RHII,≤ 0.2
16,ANYW,≤ 0.2
17,QHRT,≤ 0.2
18,AAHT,≤ 0.2
19,WSTE,≤ 0.2
20,ALLM,≤ 0.2
21,CTNM,≤ 0.2
22,IGET,≤ 0.2
23,RFYQ,≤ 0.2
24,SEDC,≤ 0.2

row,Variant,one-hybrid fitness for binding parS DNA
1,DRDG,≤ 0.2
2,HCDP,≤ 0.2
3,KPQG,≤ 0.2
4,RQHD,≤ 0.2
5,NSTY,≤ 0.2
6,CAIR,≤ 0.2
7,YTNK,≤ 0.2
8,TNII,≤ 0.2
9,CPLL,≤ 0.2
10,RWNE,≤ 0.2
11,RFPH,≤ 0.2
12,QKMG,≤ 0.2
13,NDVN,≤ 0.2
14,TPPH,≤ 0.2
15,KTSL,≤ 0.2
16,QCHP,≤ 0.2
17,IDKA,≤ 0.2
18,MMQS,≤ 0.2
19,SPNM,≤ 0.2
